In the supplement of paper PMC3334620:
Whole data set: some 33,000 sequences, median “E-score (-0.5 to 0.5)” near -0.016, cut for the highest 2% near 0.32. The list shows a part of the results.

Target: T1, Stp1 (UniProt B3LFK1)
T1 sequence: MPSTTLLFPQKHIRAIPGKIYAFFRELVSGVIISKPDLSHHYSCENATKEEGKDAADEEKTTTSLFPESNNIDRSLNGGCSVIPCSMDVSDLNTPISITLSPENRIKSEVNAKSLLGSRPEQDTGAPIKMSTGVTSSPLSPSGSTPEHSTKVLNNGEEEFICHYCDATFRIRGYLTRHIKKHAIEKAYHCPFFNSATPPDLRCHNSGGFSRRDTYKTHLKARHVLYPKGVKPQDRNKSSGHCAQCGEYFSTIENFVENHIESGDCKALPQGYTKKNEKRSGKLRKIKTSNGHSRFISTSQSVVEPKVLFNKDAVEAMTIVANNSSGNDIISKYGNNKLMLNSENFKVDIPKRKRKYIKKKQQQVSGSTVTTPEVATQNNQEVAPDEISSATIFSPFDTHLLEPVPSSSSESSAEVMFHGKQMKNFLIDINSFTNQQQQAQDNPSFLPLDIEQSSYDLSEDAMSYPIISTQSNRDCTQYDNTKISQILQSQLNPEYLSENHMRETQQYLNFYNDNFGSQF
Assay: PBM E-score (8-mer binding enrichment) (E-score (-0.5 to 0.5)); higher = stronger / more preferred TF binding; most listed sequences are background and not binding sites
Settings: protein concentration: 200 nM; construct: GST-full length
Procedure, shortened: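 For each ungapped eight-base word taken together with its reverse complement, the Universal PBM Analysis Suite assigned an E-score. Binding data came from GST-tagged yeast transcription factors, applied at about 100-200 nM, on universal all-10-mer Agilent arrays made double-stranded by primer extension. Fluorescent anti-GST marked bound protein, and scans were normalised with masliner.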

Sequence	PBM E-score
GATGACCA	-0.0425
ATTCTACC	0.0795
ACGTCCTC	-0.23
AGATACGC	0.128
CAAAATAA	0.155
ACTTTATA	0.213
CAGGGTGG	-0.205
CTGTTGAC	-0.102
ACATGTGA	-0.00447
CGACTGGC	0.0517
ATACAAGC	0.00117
AGCATAAC	0.0775
GCTCGGTA	0.0377
TACGGATA	0.189
GTCAGGGA	-0.292
ATGTTCGA	-0.0276
ATTGACTC	-0.142
CGCAACGC	0.257
GCGCACAC	-0.0434
CAGATTTC	0.138
GAGCACCC	-0.22
CAAGTCAC	-0.0456
GGGGATAC	-0.231
ACAGTTTA	0.0351
AATGAAGG	0.067

Sequence	PBM E-score
AGTCAAAG	-0.111
ACGCACAA	-0.0586
ACGTGCCC	0.18
GCCGCCCA	0.111
GACTGCCA	-0.0407
GTTTCACA	0.216
CGTTGGAG	0.0649
GGCTTTCA	0.136
CCTAGAGC	-0.157
CACGCCTA	-0.00198
CGGATTAC	-0.0627
TTAGGGAA	-0.0263
CAGAGAAC	-0.171
AGGCACGA	0.267
ATGAAAGC	0.168
GCGGTCCC	-0.16
TCTCTACA	-0.127
AGTCTGGA	-0.0979
GCTTCCTA	-0.0318
AACAAACG	0.161
CCTCGATA	0.0827
CACTGCGG	0.124
CAGAGGCC	-0.211
TCTCCACA	0.0434
AACAATGC	0.174

Sequence	PBM E-score
GAAAATCC	0.0969
ACGAGATA	-0.136
AAGACCCT	-0.262
AAGGACCC	-0.247
GGATATCA	0.173
GCGCACGA	-0.0486
GTATGGAC	0.19
CCTTAGAG	-0.28
CCGTCGTA	-0.00666
CCGTAATC	0.0826
CACTTGGC	-0.191
CCTATTCA	-0.111
TCTACTCA	0.145
AACTCCCC	-0.012
TTATAAAA	0.222
GAACTGTC	-0.0423
ACTCGCAG	-0.188
CCTCAGCA	-0.0706
GAGAGGAC	-0.0873
AGGCGATG	0.0931
CGAACTCG	0.00865
AATTCCCC	-0.108
CGTGGTTC	0.0667
CACCCGTG	-0.0331
GTCTATTA	-0.0926

Sequence	PBM E-score
CTTTAGAC	0.0481
TCAGTAGA	-0.0633
AAGTACAT	0.0214
GGAATGAA	0.09
ACTGCCCC	-0.289
AAGTTCGC	0.0513
CTAGGAAG	-0.273
TCCTGTCA	-0.029
CCAGATAC	-0.015
GCTCAATA	0.0426
GCATTATA	-0.0517
CTGCAGAC	-0.159
ATAAATAG	-0.0604
CAGAATAA	0.059
AGTTCAAA	0.113
AACCCTAT	-0.164
AGGCCTAG	-0.168
CCGGCATA	-0.183
CGTCTAAA	-0.0578
GCTCGGCA	0.246
CTGAGTAC	-0.03
CAATCTAC	-0.176
GGTGCGAC	-0.0804
AGTAGGTA	0.0213
ACAACGCT	-0.142

Sequence	PBM E-score
CTTTCGCC	0.0289
GAACACTC	0.0893
GTACTCTA	-0.0718
CCGCCTAA	-6e-05
GCTGCCGA	0.011
ATAAGGTA	-0.171
TCCTTCGA	-0.0678
GAAGATTC	0.0984
AAGAGTTC	-0.22
GATCGAAA	0.214
GAAAGTTC	-0.0403
ACAGGTCC	-0.256
AGCTTGGA	-0.231
AATATCAA	0.0535
AATTGCGA	-0.0982
AACGTCCT	-0.171
CGGTAGAC	-0.0621
AGACAAGA	0.126
TAACACAA	0.0905
CCGGCCAG	-0.0747
GAATGTAC	0.014
CCCCATTA	-0.158
ATTTACAC	0.0489
CCCGGGGA	-0.317
CTGTAATA	0.142

Sequence	PBM E-score
ATAAAAAT	0.0615
ATTGGTTG	-0.0346
CTCGAGCC	-0.221
AAGAACGC	0.185
ATCCGGAC	-0.166
AGATCTTC	-0.158
GATAGAAC	0.0526
ATTGCTGA	-0.0348
GATTTCCC	-0.0966
CGGCTAAC	0.284
AGCGGACT	-0.313
ATTAGGAA	0.0739
AACGTTAA	0.153
ATACTAGC	-0.022
GATGACTA	-0.138
CAATGTAC	-0.169
GGATCAAC	-0.0265
CACGAAAA	0.272
GATCCCTA	-0.0567
GTCGGTGA	-0.136
ACCTTGTA	0.0137
CCGTTTTC	0.269
CCCCTGTC	-0.321
ATAATATG	0.159
AGGCCTAA	-0.118

Sequence	PBM E-score
ACACCTTG	-0.0812
AACTCCCA	-0.105
GACGCACC	-0.0744
CGCTATCA	0.0552
CAACCGTA	0.0882
AAATAGCG	0.171
GGATCGAA	0.0801
AAGCTGCC	0.024
AATCCTCA	-0.0502
CAAAACTA	0.243
ATATCGTC	-0.12
GCAAATCA	0.0745
AACGCTAC	-0.072
AACCTCTT	0.0171
AGGATCCA	-0.181
CCTCACCC	-0.0609
GCTCTCAC	-0.211
AAGCTCAT	-0.206
ACGCTGCA	-0.132
CCGAGAAC	0.0968
AGGTCCGG	-0.15
ACAGAACG	-0.0053
GCTACCGA	0.0275
CGCCTGCC	0.155
AAGTCCGC	-0.0419

Sequence	PBM E-score
CTCCGCTA	-0.119
CCCTCCCG	-0.203
CCACGAAA	0.157
GAGCCATC	-0.0799
CTAAAATA	-0.0326
AAAGCGCA	-0.215
CGACTCCG	-0.155
TGGGCAAA	-0.0411
ACGCGTTC	-0.0447
AAATAATC	0.146
ATGCATAC	0.0588
CTTCCCCC	-0.402
ACTCGGCC	-0.0586
ATGAAAGA	0.0296
CATGCCAA	0.148
TTACTCAA	0.11
AACTCCCG	-0.0619
AGTTGCAG	-0.0709
AAGACTTG	-0.0595
GTTAGTAA	0.0217
GTTATAAA	0.0721
CTCACAGA	-0.0214
ATGTAGTG	-0.115
CCGGACGC	0.116
ACAAAACA	0.0402

Sequence	PBM E-score
AGTGGTGA	-0.02
AGCCATAG	-0.175
CCTTTACC	-0.05
CGATTGCG	0.0823
CTGCGCCC	-0.113
ACTTGATA	0.0701
AAGCGATA	-0.0347
AGTTCGCC	0.159
ATGTGGCA	0.27
AATGCTAG	-0.0505
CGGACGGC	0.442
AAGTAATG	-0.0435
CGCTACAA	-0.05
TATGATGA	0.162
GTCAATAA	-0.0639
ACCTTATG	-0.0423
CAACTCTA	-0.153
CGGAGATC	-0.221
GACCCGTA	-0.109
